Data as given in PubChem BioAssay AID588855 (National Center for Advancing Translational Sciences (NCATS), 2011).
Hit rate of the full screen: of about 410,000 compounds, about 5,000 (1.2%) were called active. Inconclusive results, whose numbers are uncertain, are shown with a selection of clear calls. The call rests on the fitted dose curve; in most records, active means well fitted inhibition curve with a large enough effect; inconclusive means small, poorly fitted or top-dose-only effect; inactive means no such curve, though single readings can be large or run the other way. A potency beside an inconclusive call is a rough fit, not a confirmed value.

Assay: qHTS for Inhibitors of TGF-b; further: nearly all actives have a fitted effect of over 65% in size
Conditions: HepG2 CAGA-GFP TGF-b/SMAD3 reporter, GFP fluorescence, 18 h, TGF-beta stimulated, 500 pg/mL final; series mostly up to 46.1 µM
Method in brief: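 GFP signal (ex488/em500-530) from TGF-beta-stimulated HEPG2 CAGA-GFP cells, 500 pg/mL final, 18 h at 37 degrees C in DMEM plus 1% FBS, normalized to unstimulated and DMSO-stimulated controls.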
Potency means the concentration at half of the fitted maximal effect; tags describe the fitted curve by direction and shape.

SMILES	Potency
COc1cc(OC)cc(-c2sc3ccc(OC)cc3c2C#CCO)c1	inconclusive: 0.126 µM [inhibitor, full curve, poor fit]
O=[N+]([O-])c1ccc(Cn2cc(-c3cccc(C(F)(F)F)c3)nn2)cc1	inconclusive: 2.82 µM [inhibitor, single point]
COc1ccc(OCc2nn3c(Cn4cnc5ccccc54)nnc3s2)cc1	inconclusive: 35.5 µM [inhibitor, partial curve, poor fit]
COc1cccc(CN(Cc2ccco2)C(c2ccc(F)cc2)c2nnnn2C(C)(C)C)c1 (configuration not stated)	inconclusive: 20 µM [inhibitor, single point]
Cc1ccc(Cn2c(SCc3ccc(C(=O)NCCc4ccccc4)cc3)nc3ccncc32)cc1	inconclusive: 3.98 µM [inhibitor, partial curve, poor fit]
O=C(C1CCN(c2nc(-c3ccccc3)nc3c2CCC3)CC1)N1CCCC1	inconclusive: 20 µM [inhibitor, single point]
Cc1c(Br)c([N+](=O)[O-])nn1CC(=O)Nc1sc2c(c1C(=O)OC(C)C)CCCC2	inconclusive: 17.8 µM [inhibitor, partial curve, poor fit]
COc1ccccc1NS(=O)(=O)c1cc(C(=O)NC2CCN(Cc3ccccc3)CC2)ccc1C	inconclusive: 3.98 µM [inhibitor, full curve]
Cc1ccc(S(=O)(=O)N2C[C@@H]3[C@H]4CC[C@H](C4)[C@@H]3[C@@H](C)[C@H]2c2ccn(Cc3ccccc3)c2)cc1	inconclusive: 10 µM [inhibitor, partial curve, poor fit]
CCOC(=O)/C(C#N)=C/c1c(N2CCN(C)CC2)nc2ccccn2c1=O	inactive
O=C(CSCc1cccc(Cl)c1)N/N=C/c1ccc(OCC(=O)N2CCCCC2)cc1	inconclusive: 28.2 µM [inhibitor, single point]
CCOC(=O)Cc1csc(SCC(=O)NC2CCCC2)n1	inactive
Cc1ccc(N2C(SCC(=O)O)=NC(=Nc3cccc(C)c3)C23CCCC3)cc1	inactive
CCOC(=O)CN1C(=O)CC(c2ccccc2)C1=O (configuration not stated)	inactive
COc1cc(Nc2ccc(S(N)(=O)=O)cc2)c([N+](=O)[O-])nc1[N+](=O)[O-]	inconclusive: 11.2 µM [inhibitor, single point]
CC(=O)C(C(c1ccccc1)c1c[nH]c2ccccc12)[N+](=O)[O-] (configuration not stated)	inconclusive: 22.4 µM [inhibitor, single point]
CC1CC(C)CN(C(C(=O)NC2CCCCC2)c2cc3ccccc3o2)C1 (configuration not stated)	active: 15.8 µM
COC(=O)c1cc(=O)n(Cc2ccc3c(c2)OCO3)c(=Nc2ccc(F)c(Cl)c2)s1	inactive
O=C(OCc1ccccc1)N1CCCCC1c1c(Cl)cccc1Br (configuration not stated)	inconclusive: 35.5 µM [inhibitor, single point]
Cc1ccccc1NC(=O)c1cccc(C(=O)Nc2ccccc2C)c1	inconclusive: 0.126 µM [inhibitor, full curve, poor fit]
CC1CCCN(C(=O)C(C)Sc2nc(-c3ccccc3)cc(C(F)(F)F)n2)C1 (configuration not stated)	inconclusive: 35.5 µM [inhibitor, single point]

SMILES	Potency
Cc1ccc(C)c(S(=O)(=O)N2CCN(C(=O)Cn3c(=O)cnc4ccccc43)CC2)c1	inconclusive: 6.31 µM [inhibitor, single point]
Cc1sc2ncnc(N3CCC(C(=O)Nc4nc(-c5cccs5)cs4)CC3)c2c1C	inconclusive: 1.58 µM [inhibitor, full curve]
Cc1cccc(CS(=O)(=O)c2ncc(Cl)c(C(=O)NCc3ccc4c(c3)OCO4)n2)c1	active: 7.94 µM
CSc1ccc(CN2CCC(CO)(CCOc3ccccc3)CC2)cc1	inconclusive: 35.5 µM [inhibitor, single point]
CN(C)c1ccc(C2CNC(c3ccc(Cl)c([N+](=O)[O-])c3)c3[nH]c4ccccc4c32)cc1 (configuration not stated)	active: 8.91 µM
CC12CCC(C1)C(C)(C)C2NS(=O)(=O)c1ccc(F)cc1 (configuration not stated)	inconclusive: 35.5 µM [inhibitor, single point]
O=C1C(Cl)=C(N2CCN(c3ccccc3[N+](=O)[O-])CC2)C(=O)c2ccccc21	active: 11.2 µM
CC1=C(C(=O)N(C(C)C)C(C)C)CC(CC(=O)NC2CCCC2)C(=O)N1CCC1=CCCCC1 (configuration not stated)	inconclusive: 25.1 µM [inhibitor, single point]
CCCC(O)(c1ccc(OC)cc1)C(CN1CCOCC1)c1ccc(Cl)cc1 (configuration not stated)	inconclusive: 35.5 µM [inhibitor, single point]
COc1ccc2oc(=O)c(C(=O)N3CCN(c4ccccc4F)CC3)cc2c1	inconclusive: 6.31 µM [inhibitor, single point]
CC(C)c1ccc(S(=O)(=O)Nc2ccc(O)c(Sc3nc4ccccc4s3)c2)cc1	inconclusive: 22.4 µM [inhibitor, single point]
CCn1cc(C(=O)Nc2ccc(Cl)cc2Cl)cn1	inactive
COc1ccc(CCN2CC(C(=O)N3CCC(O)(c4ccccc4)CC3)CCC2=O)cc1 (configuration not stated)	inactive
COc1ccc(C(=O)Nc2ccccc2C(=O)O)cc1NC(=O)C(c1ccccc1)c1ccccc1	inconclusive: 7.08 µM [inhibitor, partial curve, poor fit]
CC(=O)Oc1cccc(C2=CC(=O)CC(C)(C)C2=O)c1	inactive
CN(Cc1ccccc1)C(=O)C1CCC(CNS(=O)(=O)c2cccc3cccnc23)CC1 (configuration not stated)	inconclusive: 35.5 µM [inhibitor, single point]
C=CCNC(=O)C1CCN(S(=O)(=O)c2ccc(Br)cc2)CC1	inconclusive: 14.1 µM [inhibitor, single point]
COc1cc2c(=O)c(S(=O)(=O)c3ccc(C)cc3)cn(Cc3cccc(C)c3)c2cc1OC	inconclusive: 35.5 µM [inhibitor, partial curve, poor fit]
COc1ccccc1C(=O)Nc1nc2ccccc2[nH]1	inactive
COc1ccc(C(=O)N2CCN(C(=O)COc3ccc(Br)cc3)CC2)cc1OC	inconclusive: 4.47 µM [inhibitor, partial curve, poor fit]
Cc1cc2c(cc1C)C(c1cccc(OC(C)C)c1)CC(=O)N2 (configuration not stated)	inconclusive: 11.2 µM [inhibitor, partial curve, poor fit]

SMILES	Potency
OCC1(Cc2cccc(Cl)c2)CCCN(Cc2sc(N3CCCC3)nc2Cl)C1 (configuration not stated)	inconclusive: 11.2 µM [inhibitor, partial curve, poor fit]
COc1cccc(C(c2nnnn2C(C)(C)C)N2CCN(C/C=C/c3ccccc3)CC2)c1OC (configuration not stated)	inconclusive: 5.62 µM [inhibitor, single point]
COc1ccc(C(=O)OCC(=O)NC2CC2)cc1S(=O)(=O)N1CCOCC1	inconclusive: 1.26 µM [inhibitor, full curve, poor fit]
CCc1ccc(S(=O)(=O)NCCc2csc(-c3ccccc3)n2)s1	inconclusive: 20 µM [inhibitor, partial curve]
CC1CCCCN1C(=O)CN1CCC(c2nc3ccc(Cl)cc3[nH]2)CC1 (configuration not stated)	inactive
CCOC(=O)c1nn(-c2ccc(C)c(C)c2)c(=O)c(C#N)c1C	inconclusive: 15.8 µM [inhibitor, single point]
COC(=O)c1ccccc1NC(=O)CSc1nc2ccsc2c(=O)n1CCCCC(=O)O	inactive
COC(=O)c1cc(=O)n(Cc2cccs2)c(=Nc2ccc(F)cc2)s1	inconclusive: 35.5 µM [inhibitor, single point]
O=C(Nc1ccc(N2CCOCC2)nc1)c1c(F)cccc1F	inconclusive: 14.1 µM [inhibitor, single point]
O=[N+]([O-])c1nn(-c2ccc3c(c2)OCCO3)n(O)c1=NCc1ccc(F)cc1	inconclusive: 35.5 µM [inhibitor, single point]
CC(=O)N1CCN(/[N+]([O-])=N/Oc2ccc([N+](=O)[O-])cc2[N+](=O)[O-])CC1	inconclusive: 28.2 µM [inhibitor, single point]
COCCn1c(SCC(=O)c2ccccc2)nc2cc(C(=O)NC3CCCC3)ccc2c1=O	inactive
CCn1cc(CN2CCCC(C(=O)c3ccc(-c4ccccc4)c(F)c3)C2)cn1 (configuration not stated)	inconclusive: 12.6 µM [inhibitor, partial curve]
COc1ccc(N2CCN(C(=O)c3cccc(S(=O)(=O)N4CCCc5ccccc54)c3)CC2)cc1	inconclusive: 12.6 µM [inhibitor, single point]
CCc1cc(=O)oc2cc(C)c(CN3CCCCC3)c(O)c12	inconclusive: 0.562 µM [inhibitor, full curve, poor fit]
O=C(CCl)c1ccc2[nH]c(=O)oc2c1	inconclusive: 11.2 µM [inhibitor, partial curve, poor fit]
COc1ccc(NC(=O)c2ccc(NC3CC(=O)N(c4ccc(C)cc4C)C3=O)cc2)cc1 (configuration not stated)	inconclusive: 11.2 µM [inhibitor, partial curve, poor fit]
Cn1c(SCC(=O)Nc2ccc(Br)cc2F)nnc1-c1ccco1	inconclusive: 10 µM [inhibitor, partial curve]
Cc1ccc(C(=O)C2=C(O)C(=O)N(c3ncccn3)C2c2ccc(F)cc2)o1 (configuration not stated)	inconclusive: 5.62 µM [inhibitor, single point]
CC[C@]12c3[nH]c4cc(-c5ccco5)ccc4c3CCN1C(=O)[C@@H](CC(=O)NCc1cccc(C(F)(F)F)c1)C[C@@H]2C(=O)N1CCN(C(=O)C2CC2)CC1	active: 10 µM
